According to a compilation of properties of binary mixtures (doi:10.1007/s10953-012-9875-7):
The densities may have been worked out from excess volumes.

Test: xn = mol fraction of the nth substance listed
Conditions: 101 kPa

O + CCCC[N+]1(C)CCCC1.N#C[S-]
x1 = 1
Conditions	mass density [kg/m3]
328.15 K	985.7
338.15 K	980.3
348.15 K	974.8

O + CCCC[N+]1(C)CCCCC1.N#C[S-]
x1 = 1
Conditions	mass density [kg/m3]
328.15 K	985.7
338.15 K	980.3
348.15 K	974.8

O + CCCC[n+]1ccc(C)cc1.N#C[S-]
x1 = 1
Conditions	mass density [kg/m3]
328.15 K	985.7
338.15 K	980.3
348.15 K	974.8

O + CCCC[n+]1ccn(C)c1.N#C[S-]
x1 = 1
Conditions	mass density [kg/m3]
328.15 K	985.7
348.15 K	974.8

CCCC[N+]1(C)CCCC1.N#C[S-] + O
mass density [kg/m3]
Conditions	x2 = 0	x2 = 0.0853	x2 = 0.2203	x2 = 0.3555	x2 = 0.5252	x2 = 0.6634	x2 = 0.783	x2 = 0.8623	x2 = 0.9657
298.15 K	1024.8	1024.7	–	1024.7	–	1022.6	–	–	1004
308.15 K	1019.5	1019.4	1019.4	1019.2	–	–	1013.5	–	–
318.15 K	1014.2	1014.2	–	1013.8	1012.7	1010.8	1007.4	–	–
328.15 K	1009	–	1008.8	1008.3	1007.1	1004.9	–	996.8	987.8
338.15 K	–	1003.7	–	1002.9	1001.5	998.9	–	991.4	–
348.15 K	998.7	998.5	–	997.5	995.8	–	988.8	984.8	–

CCCC[N+]1(C)CCCCC1.N#C[S-] + O
mass density [kg/m3]
Conditions	x2 = 0	x2 = 0.1046	x2 = 0.2774	x2 = 0.3741	x2 = 0.5111	x2 = 0.6302	x2 = 0.7172	x2 = 0.8248	x2 = 0.9351
318.15 K	1019.5	1019.5	1019	–	1017.6	1015.9	1013.9	1009.2	999.2
328.15 K	1014.2	1014.1	–	–	1011.9	–	1007.8	1002.9	993.1
338.15 K	1009.1	1009	–	1007.6	1006.2	1004.1	1001.6	996.4	987.3
348.15 K	1004	1003.8	1003	1002.2	–	998.2	995.5	989.9	981.5

CCCC[n+]1ccc(C)cc1.N#C[S-] + O
mass density [kg/m3]
Conditions	298.15 K	308.15 K	318.15 K	328.15 K	338.15 K	348.15 K
x1 = 0.0076	1001.3	996.4	–	985.8	980.6	975.2
x2 = 0	1061.3	1055.6	–	1044.3	–	1033.1
x2 = 0.0564	–	1055.3	1049.6	1043.9	1038.3	1032.7
x2 = 0.1655	1060.4	1054.6	1048.8	1043.1	–	–
x2 = 0.278	1059.5	1053.6	1047.8	1042	1036.2	1030.4
x2 = 0.3797	1058.3	1052.4	1046.5	1040.6	–	1028.8
x2 = 0.4628	1057.1	1051.1	1045.1	1039.1	–	1027.1
x2 = 0.5669	1054.9	1048.8	1042.6	1036.4	–	–
x2 = 0.6364	1052.8	–	1040.3	1034	1027.7	1021.4
x2 = 0.6999	1050.2	1043.8	1037.4	1031	1024.4	1018.1
x2 = 0.7623	1046.7	1040.2	1033.7	1027.1	–	1013.8
x2 = 0.8333	1040.7	1034.1	1027.5	1020.8	1014	1007.1
x2 = 0.9028	1030.7	1024.4	1018	–	1004.6	997.6
x2 = 0.957	1016.5	1011.2	1005.5	–	992.1	–
x2 = 0.9714	–	–	–	–	–	981.7

CCCC[n+]1ccn(C)c1.N#C[S-] + O
mass density [kg/m3]
Conditions	298.15 K	308.15 K	318.15 K	328.15 K	338.15 K	348.15 K
x2 = 0	1069.8	1063.9	1058	–	1046.4	1040.7
x2 = 0.0998	1069.1	1063.2	1057.3	–	1045.6	1039.8
x2 = 0.2007	–	–	–	1050.5	1044.6	1038.8
x2 = 0.3169	–	1061	–	1049	–	1037.2
x2 = 0.4346	1065.3	1059.2	1053.1	1047	1040.9	1034.9
x2 = 0.5296	1063.3	1057.1	1050.8	1044.6	–	–
x2 = 0.6426	1059.5	1053.2	1046.8	–	1034	1027.6
x2 = 0.7201	1055.6	1049.2	–	–	1029.6	1023
x2 = 0.7949	1049.9	1043.4	1036.8	1030.2	–	1016.7
x2 = 0.8733	1040	1033.6	1027.1	1020.5	1013.6	1006.7
x2 = 0.9444	1024.3	1017.8	1011.9	1005.7	999.1	992.6
